# Experimental data from ChEMBL document CHEMBL4888484, “Replenishing the malaria drug discovery pipeline: Screening and hit evaluation of the MMV Hit Generation Library 1 (HGL1) against asexual blood stage Plasmodium falciparum ,using a nano luciferase reporter read-out” (2022).
# Screen size: about 150,000 compounds; about 540 (0.36%) showed an effect of 50% or more. The list shows a part of the results.
# System: Plasmodium falciparum
# Test: Primary screen in NF54 nanoGlo assay, in single point, at 2uM, 72h; a lower Z score goes with more inhibition
# Type: functional, Erythrocyte
# Settings: timepoint 72 hour
SMILES,% Inhibition,Z score
C=CCOC1CCN(C(=O)CC(C)c2c(C)n[nH]c2C)C1 (centres undefined),-13%,1.68
Cc1nccn1Cc1nnc(C2CCN(c3cccc(C#N)n3)CC2)n1C,-12%,1.16
O=C(Nc1ccccc1Cl)N1CCC(C2(O)CC2)CC1,5%,-0.57
O=C1CCCN1Cc1ccc(Nc2ncnc3c2CCC3)cc1,-13%,1.81
O=C(COc1ccc(-c2ccccc2)cc1)Nn1cnnc1,-9%,1.04
O=C(c1cc(F)cc(F)c1)N1C[C@@H](CO)[C@H](c2ccncc2)C1,1%,-0.19
O=C1OC[C@H]2CN(Cc3cc4c(cc3Cl)OCO4)CCN12,0%,0
O=C(Nc1nc(-c2ccc3c(c2)OCCO3)cs1)c1cccc(-n2cnnn2)c1,-15%,2.17
Cc1nc2n(n1)C[C@@H](C(=O)N(CC(F)F)c1ccccc1)CC2,-11%,1.58
CCn1c(C)ccc(C(=O)N2C[C@@H]3CC[C@H]2CN(S(=O)(=O)N(C)C)C3)c1=O,-4%,0.71
O=C(Nc1ccc(Cl)cc1)c1cc2n(n1)CCCN(Cc1ccc(F)cc1)C2=O,-12%,1.39
CN(CCc1nc2ccccc2[nH]1)Cc1cc(=O)[nH]c(=O)[nH]1,3%,-0.6
CC(NC(=O)C(C)(C)C)C(=O)N(C)C1CCN(C)CC1C (centres undefined),-5%,0.58
Cc1ccc(CS(=O)(=O)N(C)Cc2nnc[nH]2)cc1F,-7%,1.13
COc1ccc(C(N)CC(O)Cc2cc(OC)c3c(c2OC)OCO3)cc1 (centres undefined),5%,-0.62
NCc1cccc(C(=O)N2CCc3cc4ccc3[C@@H]2c2cccc(c2)OCCCNC(=O)c2cc(ccc2O)O4)c1,86%,-13.81
Cc1nccn1C1(C(=O)O)CCN(C(=O)c2cc3ccccc3[nH]2)CC1,-6%,0.73
N[C@H]1CC[C@@H](NC(=O)c2ccc3nc(-c4ccc(F)cc4)cn3c2)CC1,-1%,0.13
COc1ccc(NC(=O)c2nnc([C@H]3CCCN(S(=O)(=O)c4c(C)n[nH]c4C)C3)s2)cc1,-3%,0.46
CCc1cc(C(=O)Nc2ncc(C)[nH]2)[nH]n1,-3%,0.36
CN(C)c1ncc(NS(=O)(=O)c2ccc3c(c2)OCCO3)c(N(C)C)n1,-15%,1.92
Cc1cc(CNC(=O)Nc2cnc(N3CCCC[C@@H]3C)c(C)c2)on1,9%,-1.19
